Experimental data published in PubChem BioAssay AID894 (National Center for Advancing Translational Sciences (NCATS), 2007).
Hit rate of the full screen: of about 150,000 compounds, about 6,500 (4.3%) were called active. Inconclusive means that the source gave no clear call. Such entries were picked first, then a sample of the others. Calls come from the whole dose curve; as a rule, active = well fitted inhibition curve with a large enough effect (not every such curve was filed as active); inconclusive = small, poorly fitted or top-dose-only effect, or another doubt; inactive = no such curve, though single readings can be large or run the other way. No potency is given beside an inconclusive call; the fits are too rough.

The molecules below were run against 15-hydroxyprostaglandin dehydrogenase [NAD(+)] (Homo sapiens) (UniProt P15428) (assay: qHTS Assay for Inhibitors of HPGD (15-Hydroxyprostaglandin Dehydrogenase)). Conditions: purified HPGD, NADH fluorescence kinetic, PGE2 substrate; activity change, negative = inhibition: active compounds read low.
In short: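 NADH formation kinetics: reaction with 30 uM PGE2 and 1 mM NAD+ (final), 20 nM enzyme, Tris-HCl pH 8 with Tween 20, after 15 min compound preincubation at room temperature. Fluorescence change, last versus first of five reads.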
% is set by controls: 0 for no effect and ±100 for the full control effect; potency is the fitted concentration of half-maximal effect; tags give direction and shape of the fitted curve.

Chain of UniProt P15428 (P15428 whole entry, looked up): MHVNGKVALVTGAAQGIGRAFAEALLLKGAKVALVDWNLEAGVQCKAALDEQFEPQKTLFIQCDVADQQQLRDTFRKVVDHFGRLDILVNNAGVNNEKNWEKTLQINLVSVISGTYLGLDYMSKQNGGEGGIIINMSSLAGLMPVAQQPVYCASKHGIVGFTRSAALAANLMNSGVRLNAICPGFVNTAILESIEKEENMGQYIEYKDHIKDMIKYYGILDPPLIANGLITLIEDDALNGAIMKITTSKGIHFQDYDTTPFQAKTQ

SMILES | Potency | activity change, negative = inhibition
N#C/C(=C/c1ccc(N2CCCCCC2)o1)c1cccc(F)c1 | active: 25.1 µM | 
Cc1ccc(O)c(-c2cc3ccccc3[nH]2)c1 | inconclusive [inhibitor, partial curve] | 
Cc1ccc(OCCC(=O)Nc2c(C)n(C)n(-c3ccccc3)c2=O)cc1 | inconclusive [inhibitor, partial curve, poor fit] | 
Nc1c(C(=O)NCc2ccco2)c2nc3ccccc3nc2n1CCc1ccccc1 | inconclusive [inhibitor, single point] | 
Cc1c(Br)c(=O)oc2c(Br)c(O)c(O)cc12 | inconclusive [inhibitor, full curve] | 
CCC(C)NC(=O)CCSc1ccc(C)cc1 (stereo not given) | inconclusive [inhibitor, partial curve] | 
CC(C)Cc1[nH]c(=O)c(C#N)c2c1CCCC2 | inconclusive [inhibitor, partial curve] | 
CS(=O)(=O)Nc1ccc(C2=NN(S(C)(=O)=O)C(c3ccc4c(c3)OCO4)C2)cc1 (stereo not given) | inconclusive [inhibitor, partial curve] | 
CC(C)C(OC(=O)c1cc2sccc2n1C)C(=O)NCC1CCCO1 (stereo not given) |  | inactive: -8.81%
Cc1ccc(N(Cc2cc3cc(C)ccc3[nH]c2=O)C(=O)c2cccs2)cc1 | inconclusive [inhibitor, partial curve, poor fit] | 
Cc1cc(C(=O)CSc2nnc(-c3ccccc3)n2-c2ccccc2)c(C)n1-c1ncn[nH]1 | inconclusive [inhibitor, partial curve] | 
COc1cc2cc(C(N)=O)c(N)nc2cc1OC | inconclusive [inhibitor, partial curve] | 
COc1ccc(Cl)cc1C(=O)Nc1ccc(S(=O)(=O)N2CCCC2)cc1 |  | inactive: -22.3%
CC(C)(C)SCCNC(=O)COc1ccccc1 | inconclusive [inhibitor, partial curve] | 
CCCc1[nH]c(=O)c(C#N)c2c1COC(C)(C)C2 | inconclusive [inhibitor, partial curve] | 
CCN1CCN(C2=NC(=O)/C(=C/c3ccc(C)o3)S2)CC1 |  | inactive: -19%
Cc1cc(=O)[nH]c(SCc2cc(Cl)ccc2OC(F)F)n1 | active: 14.1 µM | 
CC(C)(C)c1ccc(-c2nnc(SC3CCOC3=O)n2Cc2ccccc2)cc1 (stereo not given) |  | inactive: -5%
Cc1cccc(C(=O)Nc2cccc(OC(=O)c3cccc(C)c3)c2)c1 |  | inactive: -2.8%
COc1ccc(CN(C(=O)CSc2nnc(-c3ccccc3F)o2)c2ccc(F)cc2)cc1 | inconclusive [inhibitor, partial curve] | 
Cc1ccc(-c2nc(NC(=O)CSc3nnc(C)s3)ns2)cc1 | inconclusive [inhibitor, partial curve] | 
COc1ccc(-c2cc(=O)c3c(O)c(OC)c(OC)c(OC)c3o2)cc1 |  | inactive: -11.5%
O=C(NCc1ccco1)c1cccnc1Cl | inconclusive [inhibitor, partial curve] | 
COc1ccccc1CNC(=O)c1cccc(C)c1[N+](=O)[O-] | active: 17.8 µM | 

SMILES | Potency | activity change, negative = inhibition
OC(COc1ccc2ccccc2c1)Cn1cncn1 (stereo not given) | inconclusive [inhibitor, partial curve, poor fit] | 
Cc1ccc(-c2n[nH]c(=S)n2/N=C/C=C\c2ccccc2[N+](=O)[O-])cc1 | active: 0.891 µM | 
CCC(C)c1ccc(OCCN2CCCC2)cc1 (stereo not given) |  | inactive: -3.46%
COCCn1c(C)cc(/C=C2\NC(=S)N(C)C2=O)c1C | active: 20 µM | 
O=c1[nH]c2cc3c(cc2cc1CN(CCCO)Cc1nnnn1Cc1ccc(F)cc1)OCO3 | inconclusive [inhibitor, partial curve] | 
CCCCn1c(SCC(N)=O)nc2ccc(N3CCOCC3)cc2c1=O | inconclusive [inhibitor, partial curve] | 
Cc1noc(NS(=O)(=O)c2cccc3c(N(C)C)cccc23)c1C | inconclusive [inhibitor, partial curve] | 
CCC(=O)Nc1c(S(=O)(=O)c2ccc(C)cc2)c2nc3ccccc3nc2n1C(C)c1ccccc1 (stereo not given) | inconclusive [inhibitor, partial curve] | 
COC(=O)c1cccc(NS(=O)(=O)c2ccc(OC)c(OC)c2)c1C |  | inactive: -0.175%
CC(C)(C)C1(C)OC(=O)C(=Cc2ccc(OCC(=O)Nc3ccccc3)cc2)C(=O)O1 (stereo not given) | inconclusive [inhibitor, single point] | 
COc1ccc2c(c1)c(=O)oc1cc(OCC(=O)N3CCCC(C)C3)ccc12 (stereo not given) | inconclusive [inhibitor, partial curve] | 
N#C/C(=C\c1ccc(O)c(O)c1)C(=O)NCCCCc1ccccc1 | active: 8.91 µM | 
CN(C)C(=O)COc1ccc2ccc(=O)oc2c1 | inconclusive [inhibitor, partial curve] | 
Fc1ccc(CSc2nnc(-c3cccs3)o2)cc1 | active: 15.8 µM | 
C/C(=N\NC(=O)c1c(Cl)c(C)nn1C)c1ccc(NC(=O)c2ccncc2)cc1 | inconclusive [inhibitor, single point] | 
CC(C)n1c(O)c(N=NC(=O)c2ccccc2NS(=O)(=O)c2cccs2)c2ccccc21 |  | inactive: -8.94%
C=CCNc1nc(N)c(C(=C(C#N)C#N)c2ccccc2)s1 | inconclusive [inhibitor, partial curve] | 
COc1ccc(NC(=S)Nc2cc(S(=O)(=O)N3CCCCC3)ccc2OC)cc1 |  | inactive: -17.5%
CSCC[C@@H](Nc1nc(-c2ccccc2)nc2c1oc1ccccc12)C(=O)O |  | inactive: -12.3%
CCCOc1ccc(C(=O)N2CCCC2C(=O)O)cc1 (stereo not given) |  | inactive: -7.13%
CS(=O)(=O)N1CCc2cc(C(=O)N3CCCCC3)ccc21 | active: 3.16 µM | 
O=C(Nc1nnc(CCc2ccccc2)s1)c1ccco1 | inconclusive [inhibitor, partial curve] | 
COC(=O)c1ccc(C(NC(=O)OCc2ccccc2)/C(=C/[C@@H](C)C(=O)NCc2ccccc2)c2cccnc2)cc1 (stereo not given in full) |  | inactive: -15.8%
Cc1ccc(-c2nc(S(=O)(=O)c3ccc(F)cc3)c(SCC(=O)NCC3CCCO3)o2)cc1 (stereo not given) |  | inactive: -22.4%

SMILES | Potency | activity change, negative = inhibition
CC(CC(=O)c1cccs1)CC(=O)c1cccs1 | active: 12.6 µM | 
O=C(O)c1ccc(-c2ccc(-c3ccccc3)cc2)o1 | inconclusive [inhibitor, partial curve] | 
C/C(CC(=O)Nc1cccc2c1CCCC2)=N\NC(=O)c1ccccc1N | inconclusive [inhibitor, partial curve] | 
Cn1c(CO)cnc1SCc1ccccc1 |  | inactive: 1.72%
COc1cc(OC)cc(C(=O)Nc2nc(-c3ccccc3)c(-c3ccccc3)o2)c1 | inconclusive [inhibitor, partial curve] | 
O=C(COc1ccc(/C=N/NC(=O)C(=O)N2CCCCCC2)cc1)Nc1ccccc1Cl | inconclusive [inhibitor, single point] | 
C#CCSc1nncn1C(=O)/C=C/c1ccccc1 | inconclusive [inhibitor, partial curve] | 
COc1cccc(C2CC(C(F)(F)F)n3ncc(C(=O)NCc4ccco4)c3N2)c1 (stereo not given) | active: 20 µM | 
Clc1ccccc1-c1nnc2sc(-c3ccc4c(c3)OCO4)nn12 | inconclusive [inhibitor, partial curve] | 
Cc1ccccc1N1CC(=O)N(c2ccccc2C)CC1=O |  | inactive: -5.25%
Cc1ccc(Cn2cccc(-c3nc4ccccc4s3)c2=O)cc1 | inconclusive [inhibitor, full curve] | 
COc1cc(C)ccc1OCCCOc1ccccc1Cl | inconclusive [inhibitor, partial curve] | 
CCn1c(SCC(=O)Nc2ccccc2C(=O)OC)nnc1-c1ccc(N)cc1 |  | inactive: -6.55%
COc1ccccc1CNC(=O)CCCc1ccccc1 | inconclusive [inhibitor, partial curve] | 
CC(C)C[C@@H](CC(=O)N[C@@H](CCCN)CC(=O)N[C@@H]1CCCC[C@H]1C(=O)N[C@H](CC(=O)N[C@@H](CCC(=O)O)CC(=O)O)Cc1c[nH]c2ccccc12)NC(=O)[C@@H]1CNCC[C@H]1N |  | inactive: -7.03%
Cc1ccc(-n2c(SCC(=O)NCc3ccco3)nc3c(sc4ccccc43)c2=O)cc1 | inconclusive [inhibitor, single point] | 
Cc1oc2c(CN3CCCC3)c(O)ccc2c(=O)c1-c1ccc(Br)cc1 | inconclusive [inhibitor, partial curve] | 
Cc1ccccc1CSCCNC(=O)CCSc1ccccc1 | active: 10 µM | 
Cc1ccccc1C(=O)N1CCN(c2ccc(NC(=O)c3ccco3)cc2Cl)CC1 | inconclusive [inhibitor, partial curve] | 
Cc1ccnc(SCc2cc(=O)c(OC(=O)c3ccc(Cl)c([N+](=O)[O-])c3)co2)n1 | inconclusive [inhibitor, partial curve] | 
COC(=O)c1ccc(C(NC(=O)OCc2ccccc2)/C(=C/[C@@H](C)C(=O)NCCc2c[nH]c3ccccc23)c2cccnc2)cc1 (stereo not given in full) |  | inactive: -9.64%
COc1ccc(-c2cnc(-c3cccnc3)o2)cc1 | inconclusive [inhibitor, partial curve] | 
